Test results published in PubChem BioAssay AID493005 (National Center for Advancing Translational Sciences (NCATS), 2010).
Fewer than 10 of roughly 340,000 compounds were called active. Inconclusive means that the source gave no clear call. Such entries were picked first, then a sample of the others. Calls follow the shape of the dose curve; as a rule, active = well fitted inhibition curve with a large enough effect in the main read-out, with a control signal flat (not every such curve was filed as active); inconclusive = small, poorly fitted or top-dose-only effect, or effect the other way, or a change in a side signal; inactive = no such curve, though single readings can be large or run the other way. A potency beside an inconclusive call is a rough fit, not a confirmed value. “Side channel” marks fits to a control or component signal instead of the main read-out.

biological target: Tumor susceptibility gene 101 protein (Homo sapiens) (UniProt Q99816); test: qHTS Assay for Iinhibitors of HIV-1 Budding by Blocking the Interaction of PTAP/TSG101; settings: Fluorescence polarization, FITC-PTAP peptide / Tsg101 binding; activity change, negative = inhibition: at 115 µM (top of the series); as to activity change, negative = inhibition: % of control where 0% means no effect
Chain of UniProt Q99816 (Q99816 whole entry, looked up, the tested form may be a part): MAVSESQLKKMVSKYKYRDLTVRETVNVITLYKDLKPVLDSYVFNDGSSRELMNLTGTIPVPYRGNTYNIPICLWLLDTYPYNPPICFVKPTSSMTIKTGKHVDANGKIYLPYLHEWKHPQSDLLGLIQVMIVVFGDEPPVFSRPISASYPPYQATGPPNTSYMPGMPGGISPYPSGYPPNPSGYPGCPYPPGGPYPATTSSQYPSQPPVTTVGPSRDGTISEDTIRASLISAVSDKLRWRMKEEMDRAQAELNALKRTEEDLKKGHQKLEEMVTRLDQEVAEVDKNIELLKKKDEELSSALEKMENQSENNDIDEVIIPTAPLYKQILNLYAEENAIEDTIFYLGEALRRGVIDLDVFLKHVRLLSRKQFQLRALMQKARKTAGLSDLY
Summary of the method: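 Compounds were pin-transferred onto Tsg101 binding domain (10 uM final) in HEPES pH 7.5 buffer, then FITC-PTAP peptide was added at 50 nM final. After 20 min at RT, polarization reported peptide displacement across a qHTS concentration series.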
Potency is read from the fitted curve at half-maximal effect; tags tell the direction and shape of the fitted curve or compound fluorescence and quenching.

| SMILES | activity change, negative = inhibition | Potency |
| --- | --- | --- |
| O=C1N=c2ccc(Br)cc2=C1c1sc(=S)n(NS(=O)(=O)c2ccccc2)c1O | inactive: -3.56% |  |
| CCC(CO)Oc1cc(NC(=O)c2ccc(F)cc2)c2ncn(C(C)C)c2c1 (stereo unspecified) |  | inconclusive: 89.1 µM [quencher, side channel, partial curve, poor fit] |
| COc1cccc(S(=O)(=O)NCc2ccc(C(=O)N3CCN(Cc4ccccc4)CC3)cc2)c1 |  | inconclusive: 56.2 µM [fluorescent, side channel, partial curve, poor fit] |
| Cc1ccc(-c2csc3ncnc(Nc4ccc(N5CCOCC5)cc4)c23)cc1 | inactive: -0.534% |  |
| COc1ccc([C@H]2CC(=O)C=C(c3cc(F)ccc3OC)C2)cc1 | inactive: -3.04% |  |
| CCN(CC)c1ccc2cc(C(C)=O)c(=O)oc2c1 |  | inconclusive: 56.2 µM [fluorescent, side channel, partial curve, poor fit] |
| N#C/C(=C\c1ccc(N2CCOCC2)o1)C(=O)NCCc1ccccc1 |  | inconclusive: 50.1 µM [fluorescent, side channel, partial curve, poor fit] |
| COC(=O)Cn1c(=O)c2c(n(Cc3ccccc3)c1=O)N/C(=C/c1ccc(Br)cc1)C2=O |  | inconclusive: 56.2 µM [fluorescent, side channel, partial curve, poor fit] |
| CCn1c(O)c(/C=N/N=C/c2ccccc2)c2ccc(C3=NNC(=O)CC3)cc21 |  | inconclusive: 79.4 µM [fluorescent, side channel, partial curve, poor fit] |
| CCSc1nccc(-c2nn(-c3ccc(C)cc3)ccc2=O)n1 | inactive: -8.55% |  |
| CCOc1ccc2nc(N3C(=O)/C(=C/c4ccccc4)NC3=S)sc2c1 |  | inconclusive: 50.1 µM [fluorescent, side channel, partial curve, poor fit] |
| O=C1/C(=C/c2ccc(N3CCOCC3)o2)SC(=Nc2ccccc2)N1CCc1c[nH]c2ccccc12 |  | inconclusive: 10 µM [fluorescent, side channel, full curve, poor fit] |
| CCNc1cccc2c1C(=O)N(C)C2=O |  | inconclusive: 56.2 µM [fluorescent, side channel, partial curve, poor fit] |
| Cc1nnc(N2CCOCC2)c2nn(-c3cccc(Cl)c3)c(C)c12 |  | inconclusive: 39.8 µM [fluorescent, side channel, partial curve, poor fit] |
| COc1ccc(NC(=O)c2cccc(S(=O)(=O)N3CCN(C)CC3)c2)c(OC)c1 | inactive: -0.177% |  |
| CCOC(=O)c1c(C)[nH]c(C)c1S(=O)(=O)NCc1ccc(OCC)cc1 |  | inconclusive: 89.1 µM [fluorescent, side channel, partial curve, poor fit] |
